Data on 46 compounds can be found in PMC11995724, “Antibiotic target discovery by integrated phenotypic and activity-based profiling of electrophilic fragments” (Cell chemical biology, 2025).

Molecules are shown by their SMILES. In all, about 3,200 compounds went through this assay and about 110 (3.4%) showed an effect of 50% or more. Some of the results follow.

The test system of the test is T1, V. cholerae SAD30.
T1 construct: SAD30
The arrangement: species or system S. aureus MSSA476 (TSB) or V. cholerae SAD30 (LB); 384-well bacterial growth screen at 25 uM, OD600 relative to DMSO control. To be noted: relative growth, OD600, LB; 25 µM; inhibitor.
As for `CC(Cl)C(=O)N1CCC(c2cc3ccccc3[nH]2)C1` (stereo not shown) [7-O12, 2-chloro-1-[3-(1H-indol-2-yl)pyrrolidin-1-yl]propan-1-one], the “% of control remaining” value is on record as 66.0829%. On to `C=CCNC(=O)C(C#N)=Cc1ccc(OC)c(O)c1` [8-E21, 2-cyano-3-(3-hydroxy-4-methoxyphenyl)-N-(prop-2-en-1-yl)prop-2-enamide], for which the “% of control remaining” value was 80.2855%.

Regarding `N#Cc1c(NC(=O)CCl)oc(-c2cccs2)c1-c1cccs1` [6-I09, 2-chloro-N-[3-cyano-4,5-bis(thiophen-2-yl)furan-2-yl]acetamide], the “% of control remaining” value is on record as 54.299%. With `CCC(NC(=O)CCl)c1c(C)noc1C` (stereo not shown) [7-D03, 2-chloro-N-[1-(3,5-dimethyl-1,2-oxazol-4-yl)propyl]acetamide], the “% of control remaining” value is reported as 98.0671%. The figure for `C=CC(=O)NC1CCN(c2ccc(Cl)c(Cl)c2)C1` (stereo not shown) [1-C14, N-[1-(3,4-dichlorophenyl)pyrrolidin-3-yl]prop-2-enamide] is 65.1719%; for `CN(Cc1ccc(-c2ccc(Cl)cc2)o1)C(=O)CCl` [5-I13, 2-chloro-N-{[5-(4-chlorophenyl)furan-2-yl]methyl}-N-methylacetamide] it is 79.3527%; for `CC(Cl)C(=O)Nc1ccccc1Sc1ccccc1` (stereo not shown) [6-H10, 2-chloro-N-[2-(phenylsulfanyl)phenyl]propanamide] it is 56.4224%. For the compound `O=C(CCl)N1CCN(C(=O)c2cn(C3CC3)nn2)CC1` [5-D03, 2-chloro-1-[4-(1-cyclopropyl-1H-1,2,3-triazole-4-carbonyl)piperazin-1-yl]ethan-1-one], the “% of control remaining” value came out at 109.446%.

In the case of `CC(Cl)C(=O)N1CCCC(n2ccc(C(F)(F)F)n2)C1` (stereo not shown) [7-A08, 2-chloro-1-{3-[3-(trifluoromethyl)-1H-pyrazol-1-yl]piperidin-1-yl}propan-1-one], the “% of control remaining” value was found to be 84.3218%. `O=C(CCl)Cc1ccc(F)cc1` [10-G15, 1-chloro-3-(4-fluorophenyl)propan-2-one]: the “% of control remaining” value came out at 95.6945%. As to `CC(Cl)C(=O)N1C2CCC1CC(N(C)C(=O)c1ccccc1)C2` (stereo not shown) [6-L14, N-[8-(2-chloropropanoyl)-8-azabicyclo[3.2.1]octan-3-yl]-N-methylbenzamide], the “% of control remaining” value is recorded as 87.6671%. The result for `C=CC(=O)NCCNC(=O)c1cc2ccccc2[nH]1` [3-B21, N-{2-[(1H-indol-2-yl)formamido]ethyl}prop-2-enamide] reads 112.557%; that for `C=CC(=O)NC(c1noc(O)n1)C(C)(C)C` (stereo not shown) [2-C14, N-[1-(5-hydroxy-1,2,4-oxadiazol-3-yl)-2,2-dimethylpropyl]prop-2-enamide], 93.9014%. The figure for `CC(Cl)C(=O)C=C1N(C)c2ccccc2C1(C)C` (stereo not shown) [10-J22, 3-chloro-1-(1,3,3-trimethyl-2,3-dihydro-1H-indol-2-ylidene)butan-2-one] is 91.6423%; for `CSc1ccccc1NC(=O)CN(C)C(=O)CCl` [4-L03, 2-chloro-N-methyl-N-({[2-(methylsulfanyl)phenyl]carbamoyl}methyl)acetamide] it is 116.282%; for `N#CC(=Cc1ccc(Cl)cc1)C(=O)NCc1ccccc1` [9-G13, N-benzyl-3-(4-chlorophenyl)-2-cyanoprop-2-enamide] it is 74.5751%. Take `Cc1cc(C(=O)CCl)c(C)n1-c1ccc(C(C)(C)C)cc1` [10-N20, 1-[1-(4-tert-butylphenyl)-2,5-dimethyl-1H-pyrrol-3-yl]-2-chloroethan-1-one]: the “% of control remaining” value stood at 93.045%. With `CC(Cl)C(=O)NCC1CCCCN1C(=O)C(F)(F)F` (stereo not shown) [7-K13, 2-chloro-N-{[1-(2,2,2-trifluoroacetyl)piperidin-2-yl]methyl}propanamide], the “% of control remaining” value turned out to be 77.9779%. For `CC(Cl)C(=O)N1CCC(Cc2ccncc2)C1` (stereo not shown) [6-N11, 2-chloro-1-{3-[(pyridin-4-yl)methyl]pyrrolidin-1-yl}propan-1-one], the “% of control remaining” value was determined as 92.3689%. Turning to `CCCCNC(=O)C(C#N)=Cc1ccc2c(c1)OCCO2` [9-G11, N-butyl-2-cyano-3-(2,3-dihydro-1,4-benzodioxin-6-yl)prop-2-enamide], the “% of control remaining” value is recorded as 85.724%. As to `COc1c(Cl)cc(Cl)cc1C=C(C#N)C(N)=O` [9-M13, 2-cyano-3-(3,5-dichloro-2-methoxyphenyl)prop-2-enamide], the “% of control remaining” value is recorded as 87.8994%. The result for `C=CC(=O)N1CCC(OC2CCCC2)CC1` [1-L07, 1-[4-(cyclopentyloxy)piperidin-1-yl]prop-2-en-1-one] reads 87.2945%; that for `O=C(CCl)NCCCN1CCCCCC1=O` [5-J10, 2-chloro-N-[3-(2-oxoazepan-1-yl)propyl]acetamide], 114.49%. The result for `CC(C)NC(=O)C(C#N)=Cc1ccccc1Cl` [9-A09, 3-(2-chlorophenyl)-2-cyano-N-(propan-2-yl)prop-2-enamide] reads 89.259%; that for `CC(Cl)C(=O)NC1CCc2cc(C#N)ccc21` (stereo not shown) [5-N17, 2-chloro-N-(5-cyano-2,3-dihydro-1H-inden-1-yl)propanamide], 96.6691%; that for `COC1(CNC(=O)CCl)CCC(C(F)F)CC1` (stereo not shown) [6-D21, 2-chloro-N-{[4-(difluoromethyl)-1-methoxycyclohexyl]methyl}acetamide], 97.2225%.

Consider `CC(=O)Nc1ccc(C=C(C#N)C(=O)NCc2ccccc2)cc1` [8-D12, N-benzyl-2-cyano-3-(4-acetamidophenyl)prop-2-enamide], for which the “% of control remaining” value was determined as 70.7682%. The result for `O=C(CCl)c1ccc(O)cc1O` [10-C14, 2-chloro-1-(2,4-dihydroxyphenyl)ethan-1-one] reads 100.682%; that for `Cc1cc(Cl)ccc1OC(C)C(=O)N1CCSSCC1` (stereo not shown) [10-J21, 2-(4-chloro-2-methylphenoxy)-1-(1,2,5-dithiazepan-5-yl)propan-1-one], 84.1613%; that for `CC(Cl)C(=O)Nc1cccc(C(F)(F)F)c1` (stereo not shown) [5-P14, 2-chloro-N-[3-(trifluoromethyl)phenyl]propanamide], 101.881%. Consider `C=CC(=O)NC1CC(CC(F)(F)F)C1` (stereo not shown) [2-F09, N-[3-(2,2,2-trifluoroethyl)cyclobutyl]prop-2-enamide], for which the “% of control remaining” value is listed as 90.3503%. Consider `Cc1cc(C2(NC(=O)C(C)Cl)CCOCC2)on1` (stereo not shown) [7-O13, 2-chloro-N-[4-(3-methyl-1,2-oxazol-5-yl)oxan-4-yl]propanamide], for which the “% of control remaining” value stood at 80.0925%. `CC(Cl)C(=O)NCc1cc(-c2ccccc2)on1` (stereo not shown) [7-A13, 2-chloro-N-[(5-phenyl-1,2-oxazol-3-yl)methyl]propanamide]: the “% of control remaining” value is recorded as 82.868%. Turning to `O=C(CCl)N(Cc1ccc(F)cc1)C12CC3CC(CC(C3)C1)C2` [4-B11, N-(adamantan-1-yl)-2-chloro-N-[(4-fluorophenyl)methyl]acetamide], the “% of control remaining” value is recorded as 70.0453%.

Regarding `CC(Cl)C(=O)Nc1sc2c(c1C(N)=O)CCC2` (stereo not shown) [6-A21, 2-(2-chloropropanamido)-4H,5H,6H-cyclopenta[b]thiophene-3-carboxamide], the “% of control remaining” value was found to be 96.6158%. For `COc1cc(C=C(C#N)C(N)=O)ccc1OC(F)F` [8-P08, 2-cyano-3-[4-(difluoromethoxy)-3-methoxyphenyl]prop-2-enamide], the “% of control remaining” value was found to be 77.4303%. The result for `CC(Cl)C(=O)NCc1ccc(C(=O)Nc2ccc(F)cc2)cc1` (stereo not shown) [7-G19, 4-[(2-chloropropanamido)methyl]-N-(4-fluorophenyl)benzamide] reads 73.6164%; that for `Cn1nnc(CN(C(=O)CCl)C2CCCCCCC2)n1` [5-A16, 2-chloro-N-cyclooctyl-N-[(2-methyl-2H-1,2,3,4-tetrazol-5-yl)methyl]acetamide], 107.261%; that for `C=CC(=O)N(Cc1cccc(F)c1F)C1CCCC(F)(F)C1` (stereo not shown) [1-N13, N-(3,3-difluorocyclohexyl)-N-[(2,3-difluorophenyl)methyl]prop-2-enamide], 77.2795%.

As for `COc1ccc(NC(=O)C(C#N)=Cc2cccs2)cc1` [8-O14, 2-cyano-N-(4-methoxyphenyl)-3-(thiophen-2-yl)prop-2-enamide], the “% of control remaining” value was 72.5357%. The figure for `CC(Cl)C(=O)NC(C)(C)c1ccc(F)cc1F` (stereo not shown) [6-E21, 2-chloro-N-[2-(2,4-difluorophenyl)propan-2-yl]propanamide] is 92.9756%.

As for `N#CC(=Cc1ccc([N+](=O)[O-])c(Cl)c1)C(=O)NCc1ccccc1` [8-D08, N-benzyl-3-(3-chloro-4-nitrophenyl)-2-cyanoprop-2-enamide], the “% of control remaining” value was found to be 80.5574%. For `Cl.O=C(CCl)NC(c1ccccc1)C1CC1c1ccncc1` (stereo not shown) [7-F03, 2-chloro-N-{phenyl[2-(pyridin-4-yl)cyclopropyl]methyl}acetamide hydrochloride], the “% of control remaining” value was 94.3664%. The figure for `CC(Cl)C(=O)N(Cc1nc(C2CCCCCC2)no1)C1CC1` (stereo not shown) [7-E05, 2-chloro-N-[(3-cycloheptyl-1,2,4-oxadiazol-5-yl)methyl]-N-cyclopropylpropanamide] is 62.6466%. The result for `COc1cccc(NC(=O)C(C)Cl)c1` (stereo not shown) [6-I03, 2-chloro-N-(3-methoxyphenyl)propanamide] reads 100.863%. On to `C=CC(=O)N(CC)Cc1cccc2c1OCO2` [3-I05, N-[(1,3-dioxaindan-4-yl)methyl]-N-ethylprop-2-enamide], for which the “% of control remaining” value was determined as 96.3242%.
